Patent US4334066A (priority 1981, dated 1982)
Converted amounts (≈) assume the structure as drawn.

Test system: Anthracnose of cucumber (Colletotrichum lagenarium)
Assay: microbe, parasite or virus in culture
Settings: Colletotrichum orbiculare, 48 h, read-out: Minimum Inhibitory Concentration

`CCC1OC(OC)C=C(CN2CCNCC2)C1=O` (centres unmarked) [Compound 1, 6-ethyl-2-methoxy-4-piperazinomethyl-5-oxo-5,6-dihydro-2H-pyran] was tested, and the MIC was 50 µg/mL (≈ 197 µM).

`CCOC1C=C(CN2CCOCC2)C(=O)C(C(C)C)O1` (centres unmarked) [Compound 2, 6-isopropyl-2-ethoxy-4-morpholinomethyl-5-oxo-5,6-dihydro-2H-pyran] gave an MIC of 100 µg/mL (≈ 353 µM).
